About 45 (2%) of roughly 2,000 compounds were called active.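 The calls were made as follows: active = inhibition above the mean of all tested compounds plus 3 SD (cut at about 49% in these data); inactive = the rest.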 This is one part of the list.
These molecules were tested against Perilipin-5 (Homo sapiens) + 1-acylglycerol-3-phosphate O-acyltransferase ABHD5 (Homo sapiens) (UniProt Q00G26+Q8WTS1) (assay: ABHD5-PLIN5 interaction inhibitors, pilot screen, cell lysate, split luciferase complementation, luminescence, NIH validation set (AID 493035;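 also: 0% = DMSO only wells while the 100% control is not stated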)). Settings: split G. princeps luciferase complementation, lysates, 4 h; at 7.9 µM, active compounds read high.
Chain of UniProt Q00G26 (Q00G26 whole entry, looked up): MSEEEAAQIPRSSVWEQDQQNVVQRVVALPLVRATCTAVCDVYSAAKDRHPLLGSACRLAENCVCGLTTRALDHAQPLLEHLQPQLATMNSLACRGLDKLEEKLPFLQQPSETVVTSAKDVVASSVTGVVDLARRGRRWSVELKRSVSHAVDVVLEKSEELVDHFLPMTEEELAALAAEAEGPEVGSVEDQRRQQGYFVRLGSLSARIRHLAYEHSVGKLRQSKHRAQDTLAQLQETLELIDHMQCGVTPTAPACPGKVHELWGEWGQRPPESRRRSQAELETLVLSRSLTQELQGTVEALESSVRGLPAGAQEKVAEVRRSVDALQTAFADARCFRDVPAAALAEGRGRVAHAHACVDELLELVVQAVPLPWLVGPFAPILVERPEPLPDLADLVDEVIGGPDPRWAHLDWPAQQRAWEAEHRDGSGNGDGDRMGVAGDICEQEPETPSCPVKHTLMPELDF
Chain of UniProt Q00G26 (Q8WTS1 whole entry, looked up): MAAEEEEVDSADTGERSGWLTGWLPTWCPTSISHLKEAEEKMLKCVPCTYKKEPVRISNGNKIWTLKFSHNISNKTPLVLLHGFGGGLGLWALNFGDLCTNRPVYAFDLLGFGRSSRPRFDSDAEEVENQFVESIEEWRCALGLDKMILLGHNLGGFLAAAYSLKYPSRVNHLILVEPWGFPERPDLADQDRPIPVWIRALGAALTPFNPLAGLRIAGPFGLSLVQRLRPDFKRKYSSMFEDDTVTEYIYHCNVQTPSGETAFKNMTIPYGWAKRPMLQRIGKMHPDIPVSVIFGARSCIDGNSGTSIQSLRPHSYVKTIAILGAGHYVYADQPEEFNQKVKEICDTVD
For `C[C@H](NC(=O)NCCc1ccccc1)C(=O)O`, the inhibition was inactive: -1.56%. With `O=Cc1ccc(O)c(O)c1` the inhibition was inactive: 1.43%. For `COc1ccc(-c2cc(=O)oc3c(C)c(O)c(CN(C)C)cc23)cc1`, the inhibition was inactive: -3.13%. `COC(=O)c1[nH]c2ccccc2c1NC(=O)CN1CCN(C/C=C/c2ccccc2)CC1` was tested, and the inhibition was inactive: 4.25%. With `Cc1c(O)c(=O)ccn1C` the inhibition was inactive: -1.86%. With `CCC(=O)O[C@]1(C(=O)CCl)[C@@H](C)C[C@H]2[C@@H]3CCC4=CC(=O)C=C[C@]4(C)[C@@]3(F)[C@@H](O)C[C@@]21C` the inhibition was inactive: -10.2%. `Cc1ccc(C(=O)N2CC3(C(C)C)CN(C(=O)c4ccc(C)cc4)CC(C(C)C)(C2)C3=O)cc1` was tested, and the inhibition was inactive: -13.4%. For `CCOc1cccc(N2C(=O)CC(N(CCc3ccc(OC)c(OC)c3)C(=O)CC)C2=O)c1` (configuration not stated), the inhibition was inactive: -6.64%. For `CN(C)CC/C=C1\c2ccccc2Sc2ccc(Cl)cc21`, the inhibition was inactive: -9.08%. With `CCN(CCCCCN(C)C)Cc1cc2ccccc2o1` the inhibition was inactive: -4.57%. `COc1ccc(CCN(C)CC(=O)Nc2cc(C)nc3ccccc23)cc1OC` was tested, and the inhibition was inactive: 5.63%. For `O=C1OCCN1/N=C/c1ccc([N+](=O)[O-])o1`, the inhibition was inactive: 3.06%. `COc1ccc(NC2=C(Cl)C(=O)N(c3ccccc3)C2=O)c(OC)c1` was tested, and the inhibition was inactive: -1.12%. `COc1ccc(NC(=O)C2CSC3c4ccccc4C(=O)N23)cc1` (configuration not stated) was tested, and the inhibition was inactive: 4.85%. `COc1ccc(-c2noc(-c3ccccc3-c3ccccc3)n2)cc1` was tested, and the inhibition was inactive: 7.56%. In the case of `COC(=O)c1[nH]c2ccc(C)cc2c1NC(=O)CN1CCc2cc(OC)c(OC)cc2C1`, the inhibition is reported as inactive: 0.77%. `COc1ccc(-c2[nH]ncc2C=O)cc1OC` was tested, and the inhibition was inactive: 2.87%. In the case of `O=C(Nc1ncc2c(n1)CC(c1ccco1)CC2=O)c1ccco1` (configuration not stated), the inhibition is reported as inactive: 0.31%. In the case of `COc1cccc2c(=O)c(C/C=C(/C)Cl)c(C)[nH]c12`, the inhibition is reported as inactive: -0.4%. In the case of `COc1ccc(C2CNC(=O)C2)cc1OC1CCCC1` (configuration not stated), the inhibition is reported as inactive: -5.17%. With `CC(C)c1ccc(/C=C/C(=O)O)cc1` the inhibition was inactive: -8.41%. `N#Cc1c2c(c(-c3ccccc3)[nH]c1=O)CCCC2` was tested, and the inhibition was inactive: 5.3%. In the case of `Cc1nc(-c2coc3c(CN(C)C)c(O)ccc3c2=O)cs1`, the inhibition is reported as inactive: 2.55%. `C[C@H]1C[C@@H]2[C@H]([C@@H](O)C[C@@]3(C)[C@H]2CC[C@]3(O)C(=O)CO)[C@@]2(C)C=CC(=O)C=C12` was tested, and the inhibition was inactive: -2.75%. `O=C1[C@@H]2[C@H](Cc3ccc(O)cc3)N[C@]3(C(=O)Nc4ccccc43)[C@@H]2C(=O)N1c1ccc(F)cc1` was tested, and the inhibition was inactive: -3.2%. For `CCOC(=O)N1CCN(Cc2nc(Cc3cccc(F)c3)no2)CC1`, the inhibition was inactive: -6.6%. `COc1ccc(NC(=O)Nc2ccc(C(C)C)cc2)cc1` was tested, and the inhibition was inactive: -3.33%. In the case of `CC12CCC(C(=O)NCc3ccccn3)(OC1=O)C2(C)C` (configuration not stated), the inhibition is reported as inactive: -8.39%. `COc1cccc(NC(=O)C2CC(=O)OC23CCOC(C)(C)C3)c1` (configuration not stated) was tested, and the inhibition was inactive: 0.34%. For `COC(=O)c1ccc(-c2ncc(-c3cccc4ccccc34)o2)cc1`, the inhibition was inactive: 1.49%. For `CCCNCC(O)COc1ccccc1C(=O)CCc1ccccc1` (configuration not stated), the inhibition was inactive: -2.08%. With `O=C(Nc1ccccc1C(=O)N1CCCCCC1)c1ccccc1Cl` the inhibition was inactive: -1.51%. With `CN1CCc2c(n(CC(O)CN(CCO)CCO)c3ccccc23)C1=O` (configuration not stated) the inhibition was inactive: -4.52%. For `O=[N+]([O-])c1cccc2cn[nH]c12`, the inhibition was inactive: -7.71%. For `Cc1ccc2nc(C)c3c(c2c1)OC(C(C)(Cl)Br)C3` (configuration not stated), the inhibition was inactive: -11.2%. For `CN(C)c1nc(N(C)C)nc(N(C)C)n1`, the inhibition was inactive: -7.99%. `O=C(CCc1c[nH]c2ccccc12)NCc1ccco1` was tested, and the inhibition was inactive: 6.8%. `COC(=O)CSc1nc2ccc(N)cc2s1` was tested, and the inhibition was inactive: -6.18%. With `Nc1ccc2[nH]ncc2c1` the inhibition was inactive: -5.44%. `NNC(=O)c1cc(O)c(O)c(O)c1` was tested, and the inhibition was inactive: -2.61%. In the case of `Cc1ccc(S(=O)(=O)N2CCC(C(=O)N[C@@H](C)C(=O)NC3CCS(=O)(=O)C3)CC2)cc1` (some centres not stated), the inhibition is reported as inactive: -6.13%. In the case of `O=C(O)c1cc(-c2ccccc2)nc2ccccc12`, the inhibition is reported as inactive: -2.12%. `CC(=O)O[C@]1(C(C)=O)CC[C@H]2[C@@H]3C[C@H](C)C4=CC(=O)CC[C@]4(C)[C@H]3CC[C@@]21C` was tested, and the inhibition was inactive: 0.64%. For `Oc1ccccc1OCCOc1ccccc1OCCOc1ccccc1O`, the inhibition was inactive: -3.79%. `CCOCC(=O)Nc1nc2ccccc2s1` was tested, and the inhibition was inactive: -2.55%. For `O=c1[nH]c(=O)n(C2CCCO2)cc1F` (configuration not stated), the inhibition was inactive: 4.06%. With `CC(NCCC(c1ccccc1)c1ccccc1)c1ccccc1` (configuration not stated) the inhibition was inactive: -3.07%. `CC(C)c1ccccc1OCCNC(=S)NC(=O)c1cccnc1` was tested, and the inhibition was inactive: 3.5%. For `CCOC(=O)C1C(=O)CC(C)(O)C(C(=O)OCC)C1/C=C/c1ccccc1` (configuration not stated), the inhibition was inactive: -7.86%. `CCc1cn([C@H]2C[C@H](O)[C@@H](CO)O2)c(=O)[nH]c1=O` was tested, and the inhibition was inactive: 5.96%. With `CSCCC(NC(=O)/C(=C/c1ccc2c(c1)OCO2)NC(=O)c1cccc([N+](=O)[O-])c1)C(=O)O` (configuration not stated) the inhibition was inactive: 5.37%. With `CC(C)c1ccc(NC(=O)CNS(=O)(=O)c2ccc(F)cc2)cc1` the inhibition was inactive: 1.38%. With `CC1(C)CC(NC(=O)C23CCC(C)(C(=O)C2=O)C3(C)C)CC(C)(C)N1` (configuration not stated) the inhibition was inactive: -7.41%. For `N=c1c[n+](N2CCOCC2)[n-]o1`, the inhibition was inactive: -3.09%. For `CN1CCN(CCCN2c3ccccc3Sc3ccc(Cl)cc32)CC1`, the inhibition was inactive: -9.46%. With `CC(C)CC(=O)OC1C(N2CCOCC2)c2c(ccc(/C=C/C(=O)N3CCOCC3)c2O)OC1(C)C` (configuration not stated) the inhibition was inactive: -5.11%. In the case of `Nc1cccc2c1nnn2C1OC(CO)C(O)C(O)C1O` (configuration not stated), the inhibition is reported as inactive: -6.06%. For `Cc1ccccc1C(=O)Oc1ccc(Sc2ccc(O)cc2)cc1`, the inhibition was inactive: -0.58%. `CCN(CC)C1=C(Cl)C(=O)C(Cl)C12OCCO2` (configuration not stated) was tested, and the inhibition was inactive: -9.64%. `O=C(NCCN1CCCCC1)c1c(O)c2ccccc2[nH]c1=O` was tested, and the inhibition was inactive: -5.34%. `Cc1ccc(N2CCN(C(=S)c3ccc(-c4cccc([N+](=O)[O-])c4)o3)CC2)cc1` was tested, and the inhibition was inactive: 16.9%. With `COc1ccc(-c2cc(=Nc3ccc(C)cc3)c3ccccc3o2)cc1` the inhibition was inactive: 9.1%. In the case of `Cc1ccc(C(=O)NC(=S)NCCCN2CCOCC2)cc1`, the inhibition is reported as inactive: 5.17%. With `CSc1cccc(NC(=O)/C=C/c2ccccc2)c1` the inhibition was inactive: -2.89%. For `COc1c2occc2c(OC)c2c(=O)cc(C)oc12`, the inhibition was inactive: -1.87%. With `COc1ccc(CCN(C)CCCC(C#N)(c2cc(OC)c(OC)c(OC)c2)C(C)C)cc1OC` (configuration not stated) the inhibition was inactive: -14%. For `O=C(O)C(O)c1ccccc1` (configuration not stated), the inhibition was inactive: -5.79%. In the case of `COc1ccc(-c2coc3cc(OC(=O)N4CCOCC4)ccc3c2=O)cc1`, the inhibition is reported as inactive: -5.03%. `CC(C)(C)C(=O)N1CCCC1C(=O)O` (configuration not stated) was tested, and the inhibition was inactive: -7.48%. In the case of `COc1cccc2c1OCC1COc3c(c(=O)n(C)c(=O)n3C)C21` (configuration not stated), the inhibition is reported as inactive: 8.11%. With `CCCOc1ccc(-c2cc(C(=O)NCC3CCCO3)c3ccccc3n2)cc1` (configuration not stated) the inhibition was inactive: -0.81%. `O=C(NCCc1c[nH]c2ccccc12)c1cccnc1` was tested, and the inhibition was inactive: 3.21%. For `CC(=O)OCC(OC(C)=O)C(OC(C)=O)C(OC(C)=O)C(=O)Nc1cccc(C)c1` (configuration not stated), the inhibition was inactive: -4.11%. For `CC1CC(OC(=O)C(O)c2ccccc2)CC(C)(C)N1C` (configuration not stated), the inhibition was inactive: 3.73%. With `Cc1nnc(NS(=O)(=O)c2ccc(N)cc2)s1` the inhibition was inactive: -2.03%. `CCN1CCN(c2cc3c(cc2F)c(=O)c(C(=O)O)cn3C2CC2)CC1` was tested, and the inhibition was inactive: -15.4%. In the case of `CC(C)N1C(=O)/C(=C\c2nc3ccccc3c(=O)[nH]2)c2ccccc21`, the inhibition is reported as active: 64.9%. `COc1cc(C2CC(=O)NC3=C2C(=O)CC(C)(C)C3)ccc1O` (configuration not stated) was tested, and the inhibition was inactive: 2.93%. `N#C/C(=C/c1ccccc1)C(=O)NCc1ccccc1` was tested, and the inhibition was active: 62.6%. For `Cc1cccc(C(=O)c2cccc(C)c2)c1`, the inhibition was inactive: -8.84%. `O=C(CCC1CCCN(C(=O)c2ccsc2)C1)NCc1ccc(F)c(F)c1` (configuration not stated) was tested, and the inhibition was inactive: -5.13%. In the case of `O=C(O)CCCc1ccccc1`, the inhibition is reported as inactive: 1.44%. With `Cc1cnc(NC(=O)C2=C(O)c3ccccc3S(=O)(=O)N2C)s1` the inhibition was inactive: -3.7%. With `COc1ccc(/C=C\c2nc(=O)c3ccccc3o2)cc1` the inhibition was inactive: 2.36%. With `CC1(C)O[C@@H]2C[C@H]3[C@@H]4CCC5=CC(=O)C=C[C@]5(C)[C@@]4(F)[C@@H](O)C[C@]3(C)[C@]2(C(=O)CO)O1` the inhibition was inactive: -8.39%. For `CCn1nc(C(=O)O)c(=O)c2cc3c(cc21)OCO3`, the inhibition was inactive: -10.8%. In the case of `COc1cccc(=O)c2c(C)n(CC(=O)c3ccccc3)c(C)c12`, the inhibition is reported as inactive: 23.8%. `CC(=O)Nc1ccc(S(=O)(=O)c2ccc(N)cc2)cc1` was tested, and the inhibition was inactive: -7.41%. In the case of `Fc1ccc(-n2cc(CNCCc3ccccn3)c(-c3ccccc3Cl)n2)cc1`, the inhibition is reported as inactive: -4.93%. `CCCN1CCC(NC(=O)Nc2ccc(Br)cc2)CC1` was tested, and the inhibition was inactive: -11.9%. With `CCS(=O)(=O)Nc1cc(OC)c(OC)cc1Cc1nccc2cc(OC)c(OC)cc12` the inhibition was inactive: -5.76%. With `CN(C)c1ccc(CNCCC(Cc2ccccc2)c2ccco2)cc1` (configuration not stated) the inhibition was inactive: -20.2%. In the case of `O=C1ON=C(c2ccc(Cl)cc2)/C1=C/c1ccc(O)cc1`, the inhibition is reported as active: 70.2%. For `Cc1ccc(Cl)c(Nc2ccccc2C(=O)O)c1Cl`, the inhibition was inactive: 16.1%. In the case of `CC(C(=O)O)c1ccc(N2Cc3ccccc3C2=O)cc1` (configuration not stated), the inhibition is reported as inactive: -3.18%. In the case of `CCOc1ccccc1OCCOc1ccc(F)cc1`, the inhibition is reported as inactive: -8.51%. `O=C1C(Cc2c[nH]c3ccccc23)NC(=S)N1Cc1ccccc1` (configuration not stated) was tested, and the inhibition was inactive: -0.61%.

Source: PubChem BioAssay AID493035 (The Scripps Research Institute Molecular Screening Center, 2011)
